Measured values taken from ChEMBL document CHEMBL1201862, “PubChem BioAssay data set” (2004).
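How tested: cells in 96-well plates exposed to compound for 48 hours at five concentrations. Abbreviation: GI50, concentration required for 50% inhibition of growth.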 Active and inactive are the calls of the source. Rule as the data show it: active = GI50 up to about 1.1 µM and inactive = higher.

These compounds were tested on NCI-H322M (assay: NCI anticancer screen, dose series, 48 h).

SMILES	GI50
O/N=C(\CC(O)(C(F)(F)F)C(F)(F)F)c1cccc(Cl)c1	inactive: 35.3 µM
N#CC(C(=N/O)/C(=N/O)C(C#N)c1ccc(Cl)cc1)c1ccc(Cl)cc1 (stereo not drawn)	inactive: > 100 µM
CC(O)CN1C(=O)NC(Cc2ccccc2)C1=O (stereo not drawn)	inactive: > 100 µM
CCCCn1c2c(n(CCCC)c1=S)-c1c(n(CCCC)c(=S)n1CCCC)S[Se][Se]S2	inactive: 10.6 µM
O=C(NC12CC3CC(CC(C3)C1)C2)C(=O)c1c[nH]c2ccc(Br)cc12	inactive: 24.8 µM
COc1ccc(-c2nc(Sc3c([N+](=O)[O-])ncn3C)n[nH]2)cc1	inactive: 7.66 µM
O=c1[nH]nc(Cc2ccccc2)n1/N=C\c1ccccc1	inactive: > 100 µM
CC1(C)O[C@H]2Cn3c(c(C#N)c4ccccc43)[C@H]2O1	inactive: > 100 µM
CSc1nc2c(nc(N)n2C2OC(CO)C(O)C(O)C2O)c(=O)[nH]1 (stereo not drawn)	inactive: > 100 µM
Cc1ccc(S(=O)(=O)C(CC(=O)N2CCCC2)C(=O)c2ccccc2)cc1 (stereo not drawn)	inactive: > 100 µM
Cc1ccccc1NC(=O)C(=O)C(C1OC(=O)c2ccccc21)[N+](=O)[O-] (stereo not drawn)	inactive: > 100 µM
Cc1cnc(/C=N\NC(N)=S)c2cccc(N)c12	active: 0.604 µM
O=c1[nH]c(=O)n(C2OC(CO)C(O)C2O)cc1OCCCc1ccccc1 (stereo not drawn)	inactive: > 100 µM
Cc1noc(C)c1CCCOC1COc2ccccc2OCCOCCOc2ccccc2OC1	inactive: > 100 µM
CC(=O)OC1CC2(C)C(=CC1C1SCCS1)CCC1C2CCC2(C)C(OC(C)=O)CCC12 (stereo not drawn)	inactive: > 100 µM
CC1(C)CCCCCC(C)(CCCCCCCCCCCO)C1=O (stereo not drawn)	inactive: 15.3 µM
O[C@H]1[C@H](O)[C@@H](O)[C@@]2(O)CC[C@@H]1N2	inactive: > 100 µM
Nc1nc(Cl)cc(NCCCCCNc2cc(Cl)nc(N)n2)n1	inactive: 24.5 µM
COC(=O)c1c(C)c2c(c(C)c1C(=O)OC)-c1c(C)ccc3ccc(C)c-2c13	inactive: 67 µM
O=CC1=C(C(=O)OC(c2ccccc2)c2ccccc2)N2C(=O)[C@@H](NC(=O)Cc3cccs3)[C@H]2SC1	inactive: > 100 µM
CCOC(=O)/C(O)=C/c1cc(OC)cc(=O)o1	inactive: > 100 µM
CN(C)CCNc1ccc2c(=O)n(CCN(C)C)c(=O)n3c4ccc(O)cc4c(=O)c1c23	active: < 0.0172 µM

SMILES	GI50
C[C@@H]1CC[C@@]2(OC1)O[C@H]1[C@@H](O)[C@H]3[C@@H]4CC[C@H]5C[C@@H](O[C@@H]6O[C@H](CO)[C@H](O[C@@H]7O[C@H](CO)C(O)[C@H](O[C@@H]8OC[C@@H](O)[C@H](O)[C@H]8O)[C@H]7O[C@@H]7O[C@H](CO)[C@H](O)[C@H](O[C@@H]8O[C@H](CO)[C@@H](O)[C@H](O)[C@H]8O)[C@H]7O)[C@H](O)[C@H]6O)[C@H](O)C[C@]5(C)[C@H]4CC[C@]3(C)[C@H]1[C@@H]2C (stereo partly drawn) [DIGITONIN]	inactive: 3.3 µM
Oc1ccc2ccccc2c1/N=N/c1ccc(Cl)cc1	inactive: > 100 µM
C=C1C(=O)O[C@@H]2OC3(C)CCC4C(C)CCC1C42OO3 (stereo partly drawn)	inactive: 5.92 µM
O[C@]12C=C(c3nccc4c3[nH]c3ccccc34)[C@@H]3CCN(CCCC/C=C\CC1)C[C@@]31CC3/C=C\CCCCN3[C@H]12 (stereo partly drawn)	active: 0.667 µM
COc1cc(COC(=O)N(C)[C@@H](Cc2ccccc2)C(=O)O)c([N+](=O)[O-])cc1OC	inactive: > 100 µM
CCOc1cc2c(cc1OC)c[n+](C)c1c3cc(OC)c(OC)cc3ccc21	inactive: 46.2 µM
CCOC(=O)C1=C(C)NC(=O)NC1c1coc2cc(C)cc(C)c2c1=O (stereo not drawn)	inactive: > 53.6 µM
O=C(c1ccccc1)c1ccc2c(c1)nc1n2C(c2c(Cl)cccc2Cl)SC1 (stereo not drawn)	inactive: > 100 µM
CC(=O)NC1COC(COC(=O)CCCCCCCCCCNC(=O)c2ccc([N+](=O)[O-])c3c(=O)c4ccccc4[nH]c23)C(O)C1OC(C)C(=O)NC(C(=O)NC(CCC(N)=O)C(=O)OCc1ccccc1)C(C)C (stereo not drawn)	inactive: 11.5 µM
CC(=O)C1C(c2ccccc2)C2(C)OC(=O)C(C#N)C12C (stereo not drawn)	inactive: > 100 µM
C[C@]12CC[C@@H]3c4ccc(O)cc4CC[C@H]3[C@@H]1CC[C@@H]2OC(=O)CCC1CCCC1 [ESTRADIOL CYPIONATE]	inactive: 17.8 µM
CC(=O)n1nc(-c2ccc3ccccc3c2)nc1C	inactive: 39.9 µM
Clc1cccc(C2N3CCCCC3[C@@H]3c4[nH]c5ccccc5c4CCN23)c1 (stereo partly drawn)	inactive: 28.3 µM
C=CC[C@H](O)[C@@](NC(=O)OCc1ccccc1)(Sc1ccc(C)cc1)C(F)(F)F	inactive: 66.5 µM
Nc1nc(-c2ccccc2)c(CC(=O)O)s1	inactive: > 100 µM
COc1ccc(Nc2cc(O)nc(O)n2)cc1	inactive: > 100 µM
O=S1(=O)OCCOS(=O)(=O)C1(Cl)Cl	inactive: > 100 µM
O=C1N/C(=N/N=C/C(O)C(O)C(O)CO)N/C1=C\c1ccco1 (stereo not drawn)	inactive: > 100 µM
CCCCCCCCCCCCn1[nH]c(C)c(C(=S)SCCCCCCCC)c1=O	inactive: > 100 µM
Cc1ccccc1C1CC(c2ccccc2)=NO1 (stereo not drawn)	inactive: > 100 µM
O=C(NC1C=CCC2C(=O)N(c3ccccc3)C(=O)C12)OCc1ccccc1 (stereo not drawn)	inactive: > 100 µM
O=C1C=CC2CCC1C2 (stereo not drawn)	inactive: 29.4 µM

SMILES	GI50
O=C1CC(NC(=O)C(F)(F)F)c2c(Br)sc(N3CCNCC3)c21 (stereo not drawn)	inactive: > 100 µM
Cc1cc2oc(C)c(S(=O)(=O)NC(=O)Nc3ccc(Cl)cc3)c(=O)c2c(=O)o1	inactive: > 100 µM
Sc1nnc(/C=C/c2ccc(Cl)c(Cl)c2)[nH]1	inactive: > 100 µM
COCOc1cc(OC)ccc1C/C=N/O	inactive: > 100 µM
O=S1(=O)OCCOS(=O)(=O)C1(Br)Cc1ccccc1	inactive: > 100 µM
COc1ccc(OC)c(NC(=O)c2c(Cl)c(Cl)c(Cl)c(Cl)c2-c2nc3ccccc3[nH]2)c1	inactive: > 100 µM
Cc1n[nH]c(=O)n1/N=C/c1ccc([N+](=O)[O-])o1	inactive: 23.6 µM
CC(=O)NC1C(OCc2ccccc2)OC(CO)C(O)C1OCC(=O)N[C@@H](C)C(=O)N[C@H](CCC(=O)NCCCCNc1c2ccccc2nc2cccc([N+](=O)[O-])c12)C(N)=O (stereo partly drawn)	inactive: 3.96 µM
COc1cc(/C=C/C=C2\CC/C(=C\C=C\c3ccc(O)c(OC)c3)C2=O)ccc1O	inactive: > 100 µM
CC/C=C\C/C=C\C1CC(=O)NCCCNCCCCN1 (stereo not drawn)	inactive: > 100 µM
NC(CCCCNCc1ccccc1)C(=O)O (stereo not drawn)	inactive: > 100 µM
O=C(O)CCc1nc(-c2ccccc2-n2cccc2)no1	inactive: > 100 µM
Cc1cc2nc3c(N)nn(CCCN(C)C)c3nc2cc1C	inactive: 53.2 µM
CC1(c2ccccc2)CC12C(=O)NC(=O)NC2=O (stereo not drawn)	inactive: > 100 µM
N#C/C(=C\c1cc(F)cc(F)c1)c1ccccn1	inactive: 28.1 µM
O=C(NC(CO)Cc1ccc(Oc2cc(CC(CO)NC(=O)OCc3ccccc3)ccc2OC(=O)OCc2ccccc2)cc1)OCc1ccccc1 (stereo not drawn)	inactive: 19.9 µM
C[C@H]1C=C2[C@@H]3CC(C)(C(=O)O)CC[C@]3(C)CC[C@]2(C)[C@]2(C)CC[C@H]3C(C)(C)[C@@H](OC(=O)c4cccc5c(=O)c6ccccc6[nH]c45)CC[C@]3(C)[C@@H]12 (stereo partly drawn)	inactive: > 100 µM
CC[C@]1(O)CC(OC2CC(N(C)C)C(O)C(C)O2)c2c(cc3c(c2O)C(=O)c2c(O)cccc2C3=O)[C@@H]1C(=O)OC (stereo partly drawn)	active: 0.176 µM
Cc1ccc(C2CC(c3ccc([N+](=O)[O-])cc3)=Nc3ccccc3S2)cc1 (stereo not drawn)	inactive: 33.5 µM
O=C1C(NS(=O)(=O)c2ccccc2)=C(n2ccnc2)C(=O)c2ccccc21	inactive: > 100 µM
Cc1ccc2nc(-c3ccc(N)c(Br)c3)sc2c1	inactive: 36.6 µM
c1ccc(-c2sc(-c3ccccc3)c3c2C2CCC3C2)cc1	inactive: 52.1 µM

SMILES	GI50
CSc1n/c(=N\c2ccccc2)sn1-c1ccccc1	inactive: 32.3 µM
CCC(=O)Oc1ccc2c(c1)c(=O)c1c(NCCCN(C)C)ccc3nnn2c31	inactive: 1.33 µM
O=C1c2cc3ncsc3cc2C(=O)c2c(O)ccc(O)c21	inactive: > 100 µM
CC(=O)c1ccc(Oc2c3ccccc3nc3ccccc23)cc1	inactive: 18.4 µM
CCOC(=O)C(NCc1cccc(C(F)(F)F)c1)(NC(=O)c1ccccc1)C(F)(F)F (stereo not drawn)	inactive: 46.7 µM
Cc1cn(C2CC3C(COCN3O)O2)c(=O)[nH]c1=O (stereo not drawn)	inactive: > 100 µM
C[C@@]12C[C@@H](c3ccccc3O1)N1CCSC1=N2	inactive: > 100 µM
O=S(=O)(c1cccc(C(F)(F)F)c1)N1c2ccccc2-n2cccc2C1c1cccnc1 (stereo not drawn)	inactive: > 40.3 µM
O=C1NC(=O)C(Cc2ccccc2)(c2cccnc2)N1 (stereo not drawn)	inactive: > 100 µM
Cc1c(Cl)nc(Nc2nc3ccccc3[nH]2)nc1Cl	inactive: 40.5 µM
O=C(O)CCNc1ncc2c(n1)-c1ccccc1OC2	inactive: > 100 µM
CCO/C(CCn1[nH]c(=O)c(Cl)c(Cl)c1=O)=N\NC(=O)C(=O)NN	inactive: > 100 µM
C[C@@H]1C[C@H]2[C@@H]3CCC4=CC(=O)C=C[C@]4(C)[C@@]3(Cl)[C@@H](Cl)C[C@]2(C)[C@@]1(O)C(=O)COP(=O)(O)O	inactive: > 100 µM
O=C1NC(=O)C(C(CC(=O)c2ccc(Cl)cc2)c2ccc(Cl)cc2)C(=O)N1 (stereo not drawn)	inactive: 39.7 µM
CC(=O)Nc1ccc2nncnc2c1	inactive: > 100 µM
Cc1cccc2nc3c(C(=O)NCCN(C)C)cccc3cc12	inactive: 1.43 µM
O=c1ccn2n1CCCCC2	inactive: > 100 µM
COc1c(O)c(O)cc2c1-c1ccc(OC)c(=O)cc1C(NC(C)=O)CC2 (stereo not drawn)	inactive: 4.92 µM
COc1ncc(C#CC(=O)c2ccccc2)c(OC)n1	inactive: 17.3 µM
CC(=O)Oc1cc2c(cc1OC(C)=O)[C@H]1CC[C@]3(C)[C@@H](OC(C)=O)CC[C@H]3[C@@H]1CC2	inactive: 7.23 µM
CCOC1OC(=O)c2cc3ccc4c(c3c(-c3ccc5c(c3)OCO5)c21)OCO4 (stereo not drawn)	inactive: 3.95 µM
CCN(CC)CCNc1ccc2nnn3c4ccc(OC(C)=O)cc4c(=O)c1c23	inactive: 3.46 µM
